Experimental data taken from article PMC12820563, “FoxP3 forms a head-to-head dimer in vivo and stabilizes its multimerization on adjacent microsatellites”.
Some of the results follow.

These sequences were tested against T1, MBP-FoxP1dN (Mus musculus, UniProt P58462 326-579) (assay: PD-seq (MBP pull-down with sequencing); 20 mM Tris-HCl pH 7.5, 100 mM NaCl, 1.5 mM MgCl2, 0.4 uM protein, 0.1 uM dsDNA library, 30 min, room temperature, amylose pull-down; high values mean tight binding). Settings: protein: recombinant; tags: His6-MBP; chain copies: 2; dsDNA, one strand shown.
T1 sequence: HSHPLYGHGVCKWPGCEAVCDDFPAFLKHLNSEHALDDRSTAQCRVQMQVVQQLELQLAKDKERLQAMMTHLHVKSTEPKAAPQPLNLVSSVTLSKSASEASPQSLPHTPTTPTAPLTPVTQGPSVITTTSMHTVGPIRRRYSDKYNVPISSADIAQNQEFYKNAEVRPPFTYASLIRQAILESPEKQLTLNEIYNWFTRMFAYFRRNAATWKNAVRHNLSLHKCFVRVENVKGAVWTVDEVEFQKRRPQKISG
Summary of the method: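 A fragment of mouse FoxP3 or FoxP1 without its N-terminus, carrying a His6-MBP tag and produced in E. coli, was combined at 0.4 µM with a 0.1 µM degenerate double-stranded DNA library filled in with Klenow. The mixture sat for 30 min at room temperature in Tris pH 7.5 buffer containing NaCl and MgCl2. Protein–DNA complexes were captured on amylose resin, washed three times, and the DNA was freed with proteinase K, barcoded by PCR and sequenced on Illumina. Binding is expressed as reads-per-million enrichment of pull-down over input, with replicates pooled.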
For “GATGATTGTTCTCCCAGCTGATGAATTCTGACGCTCGAGTAAACAAATTTTCCTAATCTTTCTGTTCAAGCGCCATCTAC”, the binding signal was 0.876 RPM ratio (pull-down/input).
In the case of “GATGATTGTTCTCCCAGCTGATGAATTACTTCCATCGAGTAAACAAATTTTCCTAATCTTTCTGTTCAAGCGCCATCTAC”, the binding signal is reported as 1.11 RPM ratio (pull-down/input).
In the case of “GATGATTGTTCTCCCAGCTGATGAATTTGCTTAGTCGAGTAAACAAATTTTCCTAATCTTTCTGTTCAAGCGCCATCTAC”, the binding signal is reported as 1.12 RPM ratio (pull-down/input).
In the case of “GATGATTGTTCTCCCAGCTGATGAATTAGGCATTTCGAGTAAACAAATTTTCCTAATCTTTCTGTTCAAGCGCCATCTAC”, the binding signal is reported as 1.11 RPM ratio (pull-down/input).
With “GATGATTGTTCTCCCAGCTGATGAATTTGAAGGATCGAGTAAACAAATTTTCCTAATCTTTCTGTTCAAGCGCCATCTAC” the binding signal was 0.857 RPM ratio (pull-down/input).
In the case of “GATGATTGTTCTCCCAGCTGATGAATTAAACGAGTCGAGTAAACAAATTTTCCTAATCTTTCTGTTCAAGCGCCATCTAC”, the binding signal is reported as 0.83 RPM ratio (pull-down/input).
With “GATGATTGTTCTCCCAGCTGATGAATTCTCGCCATCGAGTAAACAAATTTTCCTAATCTTTCTGTTCAAGCGCCATCTAC” the binding signal was 0.86 RPM ratio (pull-down/input).
“GATGATTGTTCTCCCAGCTGATGAATTGCCGGTATCGAGTAAACAAATTTTCCTAATCTTTCTGTTCAAGCGCCATCTAC” was tested, and the binding signal was 0.959 RPM ratio (pull-down/input).
“GATGATTGTTCTCCCAGCTGATGAATTAGTTGGTTCGAGTAAACAAATTTTCCTAATCTTTCTGTTCAAGCGCCATCTAC” was tested, and the binding signal was 1.04 RPM ratio (pull-down/input).
“GATGATTGTTCTCCCAGCTGATGAATTCAAAGTGTCGAGTAAACAAATTTTCCTAATCTTTCTGTTCAAGCGCCATCTAC” was tested, and the binding signal was 0.91 RPM ratio (pull-down/input).
For “GATGATTGTTCTCCCAGCTGATGAATTATCTAGCTCGAGTAAACAAATTTTCCTAATCTTTCTGTTCAAGCGCCATCTAC”, the binding signal was 1.02 RPM ratio (pull-down/input).
With “GATGATTGTTCTCCCAGCTGATGAATTGTAAAGATCGAGTAAACAAATTTTCCTAATCTTTCTGTTCAAGCGCCATCTAC” the binding signal was 1.07 RPM ratio (pull-down/input).
For “GATGATTGTTCTCCCAGCTGATGAATTGATTTGTTCGAGTAAACAAATTTTCCTAATCTTTCTGTTCAAGCGCCATCTAC”, the binding signal was 1.22 RPM ratio (pull-down/input).
For “GATGATTGTTCTCCCAGCTGATGAATTCGGCGTTTCGAGTAAACAAATTTTCCTAATCTTTCTGTTCAAGCGCCATCTAC”, the binding signal was 0.872 RPM ratio (pull-down/input).
“GATGATTGTTCTCCCAGCTGATGAATTAATCCTTTCGAGTAAACAAATTTTCCTAATCTTTCTGTTCAAGCGCCATCTAC” was tested, and the binding signal was 0.892 RPM ratio (pull-down/input).
For “GATGATTGTTCTCCCAGCTGATGAATTATGCACCTCGAGTAAACAAATTTTCCTAATCTTTCTGTTCAAGCGCCATCTAC”, the binding signal was 1.04 RPM ratio (pull-down/input).
With “GATGATTGTTCTCCCAGCTGATGAATTGACCCGCTCGAGTAAACAAATTTTCCTAATCTTTCTGTTCAAGCGCCATCTAC” the binding signal was 0.842 RPM ratio (pull-down/input).
“GATGATTGTTCTCCCAGCTGATGAATTTTAATCGTCGAGTAAACAAATTTTCCTAATCTTTCTGTTCAAGCGCCATCTAC” was tested, and the binding signal was 0.908 RPM ratio (pull-down/input).
With “GATGATTGTTCTCCCAGCTGATGAATTCGCCGACTCGAGTAAACAAATTTTCCTAATCTTTCTGTTCAAGCGCCATCTAC” the binding signal was 0.694 RPM ratio (pull-down/input).
“GATGATTGTTCTCCCAGCTGATGAATTAGCATGCTCGAGTAAACAAATTTTCCTAATCTTTCTGTTCAAGCGCCATCTAC” was tested, and the binding signal was 0.959 RPM ratio (pull-down/input).
“GATGATTGTTCTCCCAGCTGATGAATTTTCCTTGTCGAGTAAACAAATTTTCCTAATCTTTCTGTTCAAGCGCCATCTAC” was tested, and the binding signal was 0.879 RPM ratio (pull-down/input).
With “GATGATTGTTCTCCCAGCTGATGAATTAGGATCCTCGAGTAAACAAATTTTCCTAATCTTTCTGTTCAAGCGCCATCTAC” the binding signal was 0.743 RPM ratio (pull-down/input).
In the case of “GATGATTGTTCTCCCAGCTGATGAATTCGGATGGTCGAGTAAACAAATTTTCCTAATCTTTCTGTTCAAGCGCCATCTAC”, the binding signal is reported as 0.796 RPM ratio (pull-down/input).
In the case of “GATGATTGTTCTCCCAGCTGATGAATTATCAGGATCGAGTAAACAAATTTTCCTAATCTTTCTGTTCAAGCGCCATCTAC”, the binding signal is reported as 0.915 RPM ratio (pull-down/input).
“GATGATTGTTCTCCCAGCTGATGAATTGAAAGCGTCGAGTAAACAAATTTTCCTAATCTTTCTGTTCAAGCGCCATCTAC” was tested, and the binding signal was 0.868 RPM ratio (pull-down/input).
With “GATGATTGTTCTCCCAGCTGATGAATTTAAGCGTTCGAGTAAACAAATTTTCCTAATCTTTCTGTTCAAGCGCCATCTAC” the binding signal was 0.966 RPM ratio (pull-down/input).
In the case of “GATGATTGTTCTCCCAGCTGATGAATTTTAGTGGTCGAGTAAACAAATTTTCCTAATCTTTCTGTTCAAGCGCCATCTAC”, the binding signal is reported as 0.918 RPM ratio (pull-down/input).
With “GATGATTGTTCTCCCAGCTGATGAATTAAAGATGTCGAGTAAACAAATTTTCCTAATCTTTCTGTTCAAGCGCCATCTAC” the binding signal was 0.985 RPM ratio (pull-down/input).
With “GATGATTGTTCTCCCAGCTGATGAATTGTGTAGGTCGAGTAAACAAATTTTCCTAATCTTTCTGTTCAAGCGCCATCTAC” the binding signal was 1.11 RPM ratio (pull-down/input).
“GATGATTGTTCTCCCAGCTGATGAATTAACAGACTCGAGTAAACAAATTTTCCTAATCTTTCTGTTCAAGCGCCATCTAC” was tested, and the binding signal was 0.866 RPM ratio (pull-down/input).
For “GATGATTGTTCTCCCAGCTGATGAATTAATGCGATCGAGTAAACAAATTTTCCTAATCTTTCTGTTCAAGCGCCATCTAC”, the binding signal was 1.29 RPM ratio (pull-down/input).
